# The supplement of paper PMC3334620
# Over roughly 33,000 sequences, “E-score (-0.5 to 0.5)” has its median near -0.01; the highest 2% begin near 0.26. This is one part of the list.
# Molecular target: Ste12 (UniProt P13574)
# Assay: PBM E-score (8-mer binding enrichment) (E-score (-0.5 to 0.5)); higher = stronger / more preferred TF binding; most listed sequences are background and not binding sites
# Details: protein concentration: 200 nM; construct: GST-DNA-binding domain
# Outline: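 Universal all-10-mer Agilent arrays, double-stranded by primer extension on fresh or once-stripped slides, were probed with about 100-200 nM GST-tagged yeast transcription factors made by PURExpress. Fluorescent anti-GST detected bound protein, and masliner normalised the scans. E-scores from the Universal PBM Analysis Suite were given to each ungapped eight-base word pooled with its reverse complement.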
row,Sequence,PBM E-score
1,AGCTGTAT,-0.092
2,AACAGCGA,0.00299
3,ATGAACAA,0.0445
4,GAGGCTAC,-0.195
5,AATAGGCA,0.0915
6,CGAGTTTC,0.251
7,AGTGGTTG,0.0844
8,ACGGCGTG,-0.0929
9,GAAGGACC,-0.227
10,GAATAGCC,-0.189
11,ATTTGCCG,0.0984
12,CTCTCCTA,-0.0454
13,AACATACG,0.143
14,AGTGCTTG,-0.0429
15,CGAATGTC,0.0146
16,AAGCACCA,-0.0324
17,AATGCCCG,-0.0805
18,ACCAATAG,-0.217
19,CCTCTGCC,-0.13
20,CACTCCGA,-0.155
21,ACTCTACA,-0.144
22,AGCACGCT,-0.222
23,TCCATGCA,0.107
24,TCTTAAAA,0.156
25,CTTAGTAA,0.0288

row,Sequence,PBM E-score
1,GTTATGGA,0.00832
2,AAAGGTCG,-0.0413
3,TCATTAAA,0.324
4,CTTACGTC,-0.167
5,ACTGTAGG,0.0333
6,ACGAAGGA,-0.0803
7,GCCAGCCC,-0.0859
8,CCGTAAAC,0.0542
9,CCATGGAC,-0.138
10,ACAGAAGT,-0.00525
11,ATCGATCA,0.108
12,TCACCTGA,-0.0766
13,GATCATCA,-0.115
14,AGGCGACC,-0.232
15,ACCGAAGC,-0.101
16,ATCGCGCG,0.0537
17,ACGAAGGC,-0.205
18,ACGCCTCT,-0.111
19,CGCCGATA,0.00496
20,CGAGCCTC,-0.108
21,CCGCAGGA,-0.0635
22,ACTGGAAA,0.143
23,CACTGGAA,-0.101
24,GACAAGCA,-0.203
25,ATTCTTTC,0.155

row,Sequence,PBM E-score
1,GAGCGAGA,0.187
2,AAGCTCGT,-0.195
3,ACATTAGG,-0.034
4,GGCCTGAC,-0.0732
5,CTTGACAA,0.0222
6,GAGGCGAA,0.0755
7,CGAGGGTC,-0.0723
8,AATTTGCG,0.144
9,GCTGTACA,-0.112
10,GAACATTC,-0.00441
11,ATGTGGGA,-0.0289
12,TACATTAA,0.209
13,AGATTTAG,0.162
14,CTCTTGTC,-0.117
15,GCGGGCCA,0.00189
16,ATGGCCAA,-0.194
17,GTGTAATA,0.0454
18,CCACCGAA,-0.0889
19,ATTCATGA,0.138
20,ATCAAAGG,0.164
21,ATGAGACC,-0.144
22,CAAGGGCA,-0.073
23,ACGCCATC,0.122
24,AATTATCC,0.162
25,ACATGGTA,-0.148

row,Sequence,PBM E-score
1,AACAGAAA,0.311
2,ACGATGGC,-0.0621
3,CGTCTTGA,0.113
4,GCAGGAAC,-0.192
5,CTATGACA,0.0957
6,ATACATGC,0.00188
7,CGCGTTCA,0.129
8,CATGCCGG,0.191
9,GTACAACA,0.00343
10,GTACACAA,-0.00405
11,CTCGTTGC,0.121
12,CCATTATA,0.217
13,ATGGTTTA,0.101
14,TGTGTTAA,0.0922
15,AGCGAGGG,-0.0603
16,AGTGCGAC,-0.0819
17,CGAAAGAA,0.112
18,ACCCGAGG,-0.0292
19,TACTGGGA,0.0965
20,ATGACGAG,-0.185
21,ATAAATGG,0.139
22,CGGGATTA,0.196
23,ACGGACTC,-0.131
24,GCAACCCC,-0.0411
25,ACTGAGAA,0.00854

row,Sequence,PBM E-score
1,GCTCTTTA,-0.0234
2,ACATTTAT,0.111
3,AAACGGTA,0.151
4,CTCTCTGC,-0.0275
5,ACCCACGT,-0.0511
6,ATCGTCAA,0.016
7,CACCTTAG,-0.18
8,ATCGTTGA,0.055
9,AGCATTAG,-0.126
10,CAAACCCA,0.262
11,GAGCGACC,-0.171
12,CTAAGAAG,0.0268
13,CACTCCCG,-0.0749
14,CGGACAAG,-0.0812
15,GAAATGTC,-0.122
16,AAGATTGA,0.0987
17,AGTAAATC,0.16
18,GGATAAGA,0.0906
19,AACACGCC,-0.0359
20,GAATAGTA,-0.0864
21,CGTATCCA,-0.225
22,AGTCATAG,0.0104
23,TAAGAGAA,-0.097
24,TGAACACA,0.0641
25,GATGGCTA,-0.15

row,Sequence,PBM E-score
1,GATGAACC,0.062
2,ATAGTCCG,-0.0803
3,GATGGGCC,-0.117
4,CGAACAAC,0.125
5,ATAATACA,0.318
6,CGTCAGCC,0.0524
7,AAAGACAC,0.115
8,ATACTACC,-0.089
9,CAGCCAAG,-0.152
10,AACTGGGG,0.0456
11,ATGTAACG,0.241
12,AGGCTAGC,-0.231
13,AGTTCTAG,-0.0429
14,CCCTTTCG,-0.104
15,AACTTCAC,0.0728
16,AGAACTTA,-0.0376
17,GTTAGAGA,-0.066
18,AATTCCCA,0.0396
19,CTCTACTC,-0.129
20,AAACTAGA,0.195
21,ACCTAGGG,-0.145
22,AGACCATG,0.0174
23,CTTTCGAA,0.0433
24,ATAGGTAC,-0.12
25,ACCCTTAG,-0.19

row,Sequence,PBM E-score
1,TATTCAGA,0.029
2,ATCGTTCC,-0.229
3,AGCGTCTG,-0.149
4,AGATGGTA,-0.0201
5,CAAGGGAC,-0.244
6,CACGGGTA,-0.101
7,AAACGTAA,0.202
8,ATATCACA,0.0445
9,GCGGGACA,0.0851
10,AGTTACAT,0.0745
11,CGTGGCGC,-0.1
12,CTGCTAAA,0.0382
13,TCACTACA,0.127
14,CCCCCTAA,-0.251
15,AAAGTCAC,0.071
16,CCACATAG,-0.109
17,AAAGGATG,0.032
18,AAAAAGCA,0.108
19,GAGTTCAC,-0.13
20,TACCAATA,-0.107
21,CGCTCGAC,-0.0877
22,TCGGATCA,0.191
